# Measured values from the supplement of paper PMC11417369.
# Some of the results follow.
# System: PfAP2-HC AP2 domain (GST-tagged)
# Assay: gcPBM binding intensity (ln(normalized median fluorescence intensity)); higher = stronger DNA binding
# In short: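 For binding intensity, the highest Masliner-normalised natural-log median intensity across replicate spots of either probe orientation was taken. Protein bound to the array was stained with Alexa488 anti-GST antibody and scanned at 488 nm. The protein, GST-tagged P. falciparum DNA-binding domains from E. coli at about 25 μg on average, had been applied for 1 h to an Agilent 4 × 180k array of primer-extended double-stranded 36-bp intergenic genomic probes and negative controls.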
row,Sequence,gcPBM binding intensity (ln)
1,TATACATTTATGTACACACACATATATGTATATTTA [CACACA_site2966],9.99
2,AATAAATATCAATACACACACACAAAAGTGAATAAA [CACACA_site3763],10.4
3,AAAGGAAGAAAAAATAGTACATATATATATATATAA [XGTACX_site766],9.58
4,ATGAAATATATTATATGTACATATTTATTTTTTATA [XGTACX_site7319],9.71
5,ATTTTTTACGTATAGTACAAAGTTTTATGATACATA [CACACA_negctrl_site965],9.61
6,CATTATAAAAAATAAAAAAGAAATAATTGTATATGC [CACACA_negctrl_site478],9.62
7,AAATAGTAAATAAGGGGTACAAAAAAAAAAAAAAAA [XGTACX_site8362],9.32
8,AAATGCTAAAAATAGAGTACAGATAACGAAAAGTGT [XGTACX_site8830],9.95
9,AAAAAATTGACTAATGCACACAATTACATATATATA [CACACA_site1689],9.85
10,CAATTTTTCTATCATTGTACTTTTATATAATAGTGT [XGTACX_site1810],9.7
11,AATTGTTCTATGATTTGTACACACTTTTTTTTAAAA [XGTACX_site5984],9.86
12,ATTATAAATACACGCACACACACTTATATATATATA [CACACA_site5776],10.5
13,TTTTTTGCTTTCAACACACATACAATCTATATAATC [CACACA_site4125],9.84
14,TAAACCTGTAGAGATGCATGCATTGTTAACATGGTG [TGCATGCA_site515],9.69
15,AAGGAGAAATAAATATTAAAAAATTTATATATATAT [CACACA_negctrl_site1801],9.48
16,TAATATTGCAAATATAAAAAAAAATAAACCATATAT [XGTACX_negctrl_site458],9.76
17,TTCTTTTTTAACAACAAAAAAAAAAAAAAAAAAAAA [TGCATGCA_negctrl_site87],8.24
18,TTAATTATGGACAGGGTGCACATGAATAATAATACC,9.96
19,TATATTATAATAAGACGTACAAGGATGTTAAAACTT [XGTACX_site5828],9.7

row,Sequence,gcPBM binding intensity (ln)
1,AAAAAATATTGAAGTACACACATTATAAACTTTTTT [CACACA_site5029],9.91
2,ACCTAATTCAAATACAGTACATATACAATATATATA [XGTACX_site2779],9.63
3,AAAATTAAAAATTACTGTACGTATTAGAGAATAAAT [XGTACX_site2567],9.66
4,AAAATATTAATTAATACATGCATATATATATATATA [TGCATGCA_site585],9.52
5,TATATTGTATAAAAATGTACATGCAATAAATTTAGT [XGTACX_site5621],9.78
6,TACATTAACGGATTATTTCTCAATACAACATCATTT [CACACA_negctrl_site981],9.62
7,GTTTGTATGTCCAAATGTACATATGATTTTATGAAA [XGTACX_site6595],9.55
8,ATAGTATACAGACACACACACACACCCATATATATA [CACACA_site1736],11.7
9,AGGATATAAATATTCACACACACATGGAGATATATA [CACACA_site6317],10.8
10,TTCTTAAATGTAAATGTATATGTATTAAAAAGAGAA [TGCATGCA_negctrl_site597],9.31
11,TTATAATATTAATGTGCACACAATTAAAATATTATA [CACACA_site2046],9.84
12,TACTGTGTTTTGGTTGTACACACGCTACATTATATA [CACACA_site8863],10.2
13,ATGTTTTATATTTTTTTTTTGTTTGCTTGTTTCCTC [CACACA_negctrl_site870],9.57
14,AAGGGAAATATTGAAACACACACGAACCCACGTATT [CACACA_site252],10
15,ATACTAAATGAACACACACACATATATATATATAAT [CACACA_site4232],10.4
16,AAATAAATATATAATACACACAAAAATATAAAATGG [CACACA_site5943],10.1
17,TATAACTTTTTTATTACACACCTATGTAATATTATA [CACACA_site944],9.78
18,AACAGACATAGAAACACACATACATACATACATACA [CACACA_site2479],9.86
19,TAGTAACTTGTATTCACACAAATTATATTATATTAC [CACACA_site5041],9.7

row,Sequence,gcPBM binding intensity (ln)
1,TATATAATATATAAATGTACTTTTGTCTTATATGAA [XGTACX_site7211],9.48
2,ATTATTTAAATTTAACGTACGGAATAAGACATAGAT [XGTACX_site8622],9.79
3,ATACTATAATATAAAACACACATATGTACCTTCTAA [CACACA_site7323],9.8
4,TTCAGGTAATAACATTGTACATGTGTATCATAATTA [XGTACX_site6740],9.62
5,TTTTTTTTTTTTTTTTTTTTACAGAAAAATATTAAA [CACACA_negctrl_site128],8.49
6,AATCATTAAAGCATAATGTTTATGATCAATATGAAA [CACACA_negctrl_site887],9.54
7,TTATTCTAAAAATATACACACAACAACAAACAAACA [CACACA_site1543],10.6
8,ATGTGTTTCTTCAATTGTACTAAAAGGTATATATTG [XGTACX_site4608],9.63
9,CAATATGGAAAATAAAGTACGCACACAAAAATTCTC [XGTACX_site4793],10
10,TAGATAAAATGAACATGTACTCATCTTAATATATAT [XGTACX_site34],9.58
11,TACACCCACATATATATACACACTTTTATTTAAATA [CACACA_site1596],9.96
12,AAAAAAAATAATGTTGCACACAACAACAAACAAAAA [CACACA_site3290],10
13,AATATATATATATGTGCACACATATATAATATGTAT [CACACA_site716],10.4
14,TTTCATAAATAATAAAATAAAATATGAAGCAAAAGG [CACACA_negctrl_site1767],9.67
15,TAATTTTTTTAAGAGAGTACATGACTCAACAGTTTA [XGTACX_site3103],9.27
16,TTATATCCAACTTGAAAAAAGGTATATGTTTATATA [CACACA_negctrl_site1746],9.33
17,TTTTTTTTTTTTTGGAGTACATGTTTATAACATAAT [XGTACX_site1799],9.37
18,TGCTCTAATTTATATACACACAAATATGTACACATA [CACACA_site7845],9.92
